According to PubChem BioAssay (NCATS):
Inconclusive results, whose numbers are uncertain, are shown with a selection of clear calls. Where the call is inconclusive, the potency comes from a doubtful curve fit. Active and inactive are the calls of the source. Calls follow the shape of the dose curve; as a rule, active = well fitted activation curve with a large enough effect in the main read-out, with a control signal flat (not every such curve was filed as active); inconclusive = small, poorly fitted or top-dose-only effect, or effect the other way, or a change in a side signal; inactive = flat fitted curve, though single readings scatter.

Molecular target: 3',5'-cyclic-AMP phosphodiesterase 4B (Homo sapiens) (UniProt Q07343)
Assay: qHTS Assay for Inhibitors of PDE-IV (AID 607)
Details: HEK293 ACTOne CNG channel cells, membrane potential fluorescence; series mostly up to 22.9 µM
Procedure, shortened: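 HEK293 ACTOne cells with CNG channel (1000/well), endogenous PDE4; membrane potential dye, compounds up to 22.9 uM final. Fluorescence Ex 535/Em 590; RO 20-1724 (100 uM final) as reference.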
Potency is read from the fitted curve at half-maximal effect; tags tell the direction and shape of the fitted curve.

Chain of UniProt Q07343 (Q07343 whole entry, looked up): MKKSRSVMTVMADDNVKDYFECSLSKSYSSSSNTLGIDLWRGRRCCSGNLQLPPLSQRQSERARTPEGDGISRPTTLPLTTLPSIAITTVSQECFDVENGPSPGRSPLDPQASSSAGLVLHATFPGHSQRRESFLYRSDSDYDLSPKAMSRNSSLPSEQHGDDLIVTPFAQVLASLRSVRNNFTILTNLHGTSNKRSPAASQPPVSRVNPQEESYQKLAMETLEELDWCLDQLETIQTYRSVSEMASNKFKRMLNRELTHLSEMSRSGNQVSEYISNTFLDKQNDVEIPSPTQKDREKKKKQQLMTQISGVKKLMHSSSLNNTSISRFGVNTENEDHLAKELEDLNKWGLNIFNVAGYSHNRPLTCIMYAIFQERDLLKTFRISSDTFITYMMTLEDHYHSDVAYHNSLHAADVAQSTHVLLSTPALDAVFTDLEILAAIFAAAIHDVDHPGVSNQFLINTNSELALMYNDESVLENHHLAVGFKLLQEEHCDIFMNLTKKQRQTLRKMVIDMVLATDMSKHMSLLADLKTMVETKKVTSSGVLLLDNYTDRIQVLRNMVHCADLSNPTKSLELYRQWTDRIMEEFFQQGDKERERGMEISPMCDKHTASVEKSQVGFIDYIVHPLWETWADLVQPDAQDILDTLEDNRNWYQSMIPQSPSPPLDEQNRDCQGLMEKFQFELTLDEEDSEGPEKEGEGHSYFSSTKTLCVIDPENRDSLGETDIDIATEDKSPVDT

Row | SMILES | Potency
1 | c1ccc(-c2ccc(N3CC4(CCNCC4)C3)cc2)cc1 | inactive
2 | COC(=O)[C@@]1(Cc2ccc(OC)cc2)[C@H]2c3cc(C(=O)N(C)C)n(Cc4ccsc4Br)c3C[C@H]2CN1C(=O)c1ccccc1 | inconclusive: 0.794 µM [rising, full curve, poor fit]
3 | CCc1cccc2c(-c3ccccc3)c3c(nc12)OCC3 | inconclusive: 12.6 µM [rising, partial curve]
4 | O=c1cc(-c2ccccc2)oc2cc(O[C@H]3O[C@H](CO)[C@@H](O)[C@H](O)[C@@H]3O)c(O)c(O)c12 | inconclusive: 19 µM [inhibitor, single point]
5 | COC(=O)[C@@]1(Cc2ccccc2)[C@@H]2C(=CC(=O)[C@H]2CC(=O)C(=O)N(C)C)CN1C(=O)c1ccccc1 | inconclusive: 10 µM [activator, partial curve]
6 | CC(=O)O[C@H](CC(=O)O)C[N+](C)(C)C | inconclusive: 15.1 µM [inhibitor, single point]
7 | O=c1cc(-c2ccccc2)oc2c1ccc1ccccc12 | inconclusive: 15.1 µM [rising, partial curve]
8 | CN(CC(=O)O)Cc1c[nH]c2ccccc12 | inactive
9 | COC(=O)[C@@]1(Cc2ccc(OC)cc2)[C@H]2c3cc(C(=O)N(C)C)n(Cc4ccc(S(C)(=O)=O)cc4)c3C[C@H]2CN1C(=O)c1ccccc1 | inconclusive: 1.26 µM [activator, single point]
10 | O=C(O)Cc1[nH]cnc1C(=O)O | inconclusive: 1 µM [inhibitor, partial curve, poor fit]
11 | COC(=O)[C@@]1(Cc2ccc(OC)cc2)[C@H]2c3cc(C(=O)N4CCCC4)n(CCc4ccc(OC)c(Br)c4)c3C[C@H]2CN1C(=O)c1ccccc1 | inconclusive: 10 µM [rising, partial curve]
12 | CC(C)NC[C@@H](O)COc1cccc2[nH]ccc12 | inconclusive: 19 µM [inhibitor, single point]
13 | C[C@@H]1C[C@@]2(C)Oc3ccccc3[C@H]3OC[C@]1(COC(=O)Nc1ccccc1)[C@@H](C)[C@@H]32 | inconclusive: 19 µM [inhibitor, single point]
14 | COC(=O)[C@@]1(Cc2ccccc2)[C@H]2c3cc(C(=O)N(C)C)n(Cc4ccc(OC)c(OC)c4)c3C[C@H]2CN1C(=O)c1ccccc1 | inactive
15 | O=c1cc(-c2ccccc2O)oc2ccc3ccccc3c12 | inconclusive: 12 µM [activator, partial curve]
16 | Cc1c(-c2ccccc2)oc2cc(O)ccc2c1=O | inconclusive: 15.1 µM [rising, partial curve]
17 | CCCCCCN(CCCCCC)C(=O)Cc1c(-c2ccc(Cl)cc2)[nH]c2ccc(Cl)cc12 | inactive
18 | CCC/C=C(\CCC)C(NS(=O)(=O)c1ccc(C(F)(F)F)cc1)c1ccc(C(=O)OC)cc1 (centres undefined) | inconclusive: 6.31 µM [activator, partial curve]
19 | O=c1c(O)c(-c2cccc(O)c2)oc2ccccc12 | inconclusive: 15.1 µM [inhibitor, partial curve, poor fit]
